Source: ChEMBL document CHEMBL1201862, “PubChem BioAssay data set” (2004)

What follows are compounds tested on NCI-H322M (assay: inhibition of tumour cell growth, NCI panel, 48 h).
With CN(C)c1ccc(C=c2c3cc(O)ccc3n3c2cc(-c2ccccc2)[n+]3C)cc1 the GI50 was inactive: 2.69 µM. With COc1ccc2c(c1)c(=Cc1ccc(N(C)C)cc1)c1cc(-c3ccccc3)[n+](C)n12 the GI50 was inactive: 1.62 µM. For Cc1c(C)c(C)c(CC2(C)CSC2)c(CC2(C)CSC2)c1C, the GI50 was inactive: > 100 µM. For O=C(Nc1ccc2[nH]c(C(=O)N3CC(CCl)c4c3cc([N+](=O)[O-])c3ccccc43)cc2c1)Nc1ccc2[nH]c(C(=O)N3CC(CCl)c4c3cc([N+](=O)[O-])c3ccccc43)cc2c1 (stereo not drawn), the GI50 was inactive: > 100 µM. Cc1cc(C)c([O-])c(-[n+]2c(-c3ccccc3)cc(-c3ccccc3)cc2-c2ccccc2)c1 was tested, and the GI50 was inactive: 6.22 µM. With Cc1ccc(NC(=O)C2C3C=CC(O3)C2C(=O)O)cc1 (stereo not drawn) the GI50 was inactive: > 100 µM. CC(C)(C)N1C(=O)[N-]/[N+](=C(/C(c2ccccc2)=[N+]2/[N-]C(=O)N(C(C)(C)C)C2=O)c2ccccc2)C1=O was tested, and the GI50 was inactive: > 100 µM. CCN(CC)CCCN(c1cc(OC)cc2nccnc12)S(=O)(=O)c1ccc(C)cc1 was tested, and the GI50 was inactive: > 100 µM. CC1(C)CC(=O)C(=CNc2nc(-c3ccccc3)cs2)C(=O)C1 was tested, and the GI50 was inactive: > 100 µM. In the case of CC(=O)NNc1nc(C)c(C(/C=C/c2ccc3c(c2)OCO3)=N/NC(=O)c2ccncc2)s1, the GI50 is reported as inactive: > 100 µM. With CCOC(=O)c1c(N2CCOCC2)[nH]c(=O)c(C(c2cccs2)c2c(O)c(C(=O)OCC)c(N3CCOCC3)[nH]c2=O)c1O the GI50 was inactive: > 100 µM. CCCCCN1CCN(c2ncccn2)CC1 was tested, and the GI50 was inactive: > 100 µM. For CC(=O)/C(=C/n1ccc(=O)[nH]c1=S)C(=O)Nc1ccccc1C, the GI50 was inactive: > 100 µM. Cc1c2oc3c(C)cc(F)c(C(=O)NC4C(=O)NC(C(C)C)C(=O)N5CCCC5C(=O)N(C)CC(=O)N(C)C(C(C)C)C(=O)OC4C)c3nc-2c(C(=O)NC2C(=O)NC(C(C)C)C(=O)N3CCCC3C(=O)N(C)CC(=O)N(C)C(C(C)C)C(=O)OC2C)c(N)c1=O (stereo not drawn) was tested, and the GI50 was active: 0.00371 µM. With O=C1NCC2(CCN(CC3COc4ccccc4O3)CC2)N1c1ccccc1 (stereo not drawn) the GI50 was inactive: > 100 µM. C=CCC12CC(=O)CCC1c1ccc(OC)cc1C2=O (stereo not drawn) was tested, and the GI50 was inactive: > 100 µM. In the case of CCCCCCCc1c(Cl)nc(Cl)nc1Cl, the GI50 is reported as inactive: 7.76 µM. With O=[N+]([O-])C(/C=C(\Cl)[N+](=O)[O-])=C(Nc1ccccc1)Nc1ccccc1 the GI50 was inactive: 17.8 µM. N#Cc1nnn(-c2ccccc2)c1O was tested, and the GI50 was inactive: > 100 µM. For C/C(=N\NC(=S)N1CCCCCC1)c1cccc2cccnc12, the GI50 was active: 0.818 µM. For Cc1cccc(N2C(=O)C(=O)C(c3nc4ccccc4s3)/C(=N/NC(=S)NN)C2=O)c1C (stereo not drawn), the GI50 was inactive: > 100 µM. With CCOc1cc(NC(C)=O)ccc1C(=O)NNC(=O)c1ccccc1OC(C)=O the GI50 was inactive: 8.57 µM. For O=[N+]([O-])c1ccc(/C=N/CC2CCCN3CCCCC23)cc1 (stereo not drawn), the GI50 was inactive: > 100 µM. In the case of CCC(NC(C)c1ccccc1)C(O)c1ccc(OCc2ccccc2)c(OCc2ccccc2)c1 (stereo not drawn), the GI50 is reported as inactive: 14.4 µM. CCOC(=O)c1nc2cc(C(F)(F)F)ccc2nc1Oc1ccc(C(=O)OC)cc1 was tested, and the GI50 was inactive: > 100 µM. With CCOC(=O)C1=C(NC(C)(C)C)OC/C1=N\NC(=O)Cc1ccccc1 the GI50 was inactive: > 100 µM. For O=C1OC(C2Cc3ccc4c(c3C2=O)CCCC4)c2ccccc21 (stereo not drawn), the GI50 was inactive: 45 µM. For NC1=NNC2(C(N)=N1)c1ccccc1-c1ccccc12, the GI50 was inactive: > 10 µM. With Cc1cc2c(cc1-c1cc3c(cc1C)C(C(C)C)=C(O)C(=O)/C3=C\Nc1cccc3c(N)cccc13)/C(=C/Nc1cccc3c(N)cccc13)C(=O)C(O)=C2C(C)C the GI50 was inactive: > 100 µM. CCN(CC)CCCNc1nncc2c(C)c3[nH]c4ccc(OC)cc4c3cc12 was tested, and the GI50 was active: 0.418 µM. In the case of COc1cccc([C@@]2(O)c3c(ccc(O)c3OC)[C@H]2OC)c1OC, the GI50 is reported as inactive: 41.1 µM. For c1ccc(-c2cc(-c3ccncc3)cc(-c3ccncc3)n2)cc1, the GI50 was inactive: > 100 µM. In the case of c1cc(-c2ccc(-c3ccc(C4=NCCCN4)cc3)o2)ccc1C1=NCCCN1, the GI50 is reported as inactive: > 100 µM. For O=C1/C(=C\c2ccc(Cl)cc2Cl)Sc2scc(-c3cccc([N+](=O)[O-])c3)[n+]21, the GI50 was inactive: 17.7 µM. In the case of O=C(Cc1ccccc1[N+](=O)[O-])C(CO)c1ccccc1[N+](=O)[O-] (stereo not drawn), the GI50 is reported as inactive: > 100 µM. In the case of CC1=NN(c2nc(N)nc(NS(=O)(=O)c3cc(C)c(Cl)cc3S)n2)C(C)(C)C1, the GI50 is reported as inactive: > 10 µM. With CC(/C=C/c1ccccc1)=N\NC(=S)N/N=C(C)/C=C/c1ccccc1 the GI50 was inactive: 63.2 µM. In the case of Cn1c2ccccc2n2c3ncccc3c(=S)c(C#N)c12, the GI50 is reported as inactive: > 100 µM. In the case of COc1cc(OC)c(C2CC=Cc3c(OC)cc(OC)c(OC)c32)cc1OC (stereo not drawn), the GI50 is reported as inactive: > 100 µM. With C[N+]1(CCC(=O)c2ccco2)CC2CCC(CC2)C1 (stereo not drawn) the GI50 was inactive: > 100 µM. With CCOC(=O)C(=C(SC)SC)c1nn2c(=O)cc(C)nc2s1 the GI50 was inactive: 25.6 µM. O=c1oc2ccc([N+](=O)[O-])cc2cc1-c1csc(-c2ccccc2)n1 was tested, and the GI50 was inactive: > 100 µM. With CC1=C2C(=O)NN=C2CCN1c1ccc(Br)cc1 the GI50 was inactive: > 100 µM. With C/C(CCn1[nH]c(=O)ccc1=O)=N\Nc1ccc([N+](=O)[O-])cc1[N+](=O)[O-] the GI50 was inactive: > 100 µM. COC(=O)/C(=N\Nc1nc(S)nn1N)C(C#N)c1ccc(Cl)cc1 (stereo not drawn) was tested, and the GI50 was inactive: > 100 µM. N#Cc1nc(C2CC2)oc1N was tested, and the GI50 was inactive: > 100 µM. COC1CC(NC(=O)C(F)(F)F)C(OC(C)=O)C(C)O1 (stereo not drawn) was tested, and the GI50 was inactive: > 100 µM. With C/C(=N\NC(=S)NC(CCC(=O)O)C(=O)O)c1cnccn1 (stereo not drawn) the GI50 was inactive: > 100 µM. With CCCCNS(=O)(=O)c1ccc(-c2ccc3c(c2)-c2ccc(S(=O)(=O)NCCCC)cc2S3(=O)=O)cc1 the GI50 was inactive: 25.2 µM. With CC(C)(C)c1cc2c(O)c(c1)COCc1cc(C(C)(C)C)cc(c1O)COCc1cc(C(C)(C)C)cc(c1O)COC2 the GI50 was inactive: 38.5 µM. For Cc1ccc(S(=O)(=O)NC(CN)C(=O)O)cc1 (stereo not drawn), the GI50 was inactive: > 100 µM. In the case of O=c1c2ccccc2nc2sc(/N=C/C=C/c3ccccc3)nn12, the GI50 is reported as inactive: > 100 µM. With O=C1CC2(CCC(O)(c3ccc4ccccc4c3)C(C(=O)c3ccc4ccccc4c3)C2)C(=O)c2ccccc2N1 (stereo not drawn) the GI50 was inactive: > 100 µM. In the case of CC(C)C1CC(CO)(CNc2cc(Cl)nc(N)n2)C1 (stereo not drawn), the GI50 is reported as inactive: > 100 µM. For CCOC(=O)C(=CN1CCNC1=S)C(=O)OCC, the GI50 was inactive: > 100 µM. CC/C(=N/O)C(C)C(=O)CCC(=O)Nc1ccc(Cl)cc1 (stereo not drawn) was tested, and the GI50 was inactive: > 100 µM. Nn1c(-c2ccccc2)nn(C(=O)c2ccccc2)c1=O was tested, and the GI50 was inactive: > 100 µM. COc1cc(C(c2ccccc2)N2C(=O)CC[C@H]2C(=O)O)cc(OC)c1OC (stereo partly drawn) was tested, and the GI50 was inactive: > 100 µM. With COc1cc(C2SCC(=O)N2c2ccc(-n3c(-c4ccccc4)nc4ccccc4c3=O)cc2)cc(OC)c1OC (stereo not drawn) the GI50 was inactive: > 100 µM. With CN(CCN(C)C(=S)NN)C(=S)NN the GI50 was inactive: > 100 µM. In the case of COC(=O)C(=O)C(C(C)=O)C(=O)NCc1ccc(OC)c(OC)c1 (stereo not drawn), the GI50 is reported as inactive: > 100 µM. With COC(=O)C(=O)C(C(=O)C(=O)Nc1ccccc1OC)c1nc2ccc([N+](=O)[O-])cc2nc1O (stereo not drawn) the GI50 was inactive: 79.8 µM. C[N+](C)(C)c1ccc(C(N)C(=O)O)cc1 (stereo not drawn) was tested, and the GI50 was inactive: > 100 µM. With CCOC(=O)c1c(-c2ccccc2)[nH]c2ccc(Cl)cc2c1=O the GI50 was inactive: 43.2 µM. CC(C)N(CCCNc1c2ccccc2nc2cccc([N+](=O)[O-])c12)C(C)C was tested, and the GI50 was active: 0.0285 µM. For CCN(CC)C(=S)Oc1cc2oc(=O)cc(C)c2cc1Cl, the GI50 was inactive: > 100 µM. In the case of Cc1cc2c(cc1CO)N1Cc3cc(C)c(CO)cc3N(C2)C1, the GI50 is reported as inactive: > 100 µM. In the case of COc1ccc2cccc(C(=N)c3ccc(C)c4c3CCC4)c2c1, the GI50 is reported as inactive: 11.9 µM. With CCOC(=O)/C(=C\c1cccs1)P(=O)(OCC)OCC the GI50 was inactive: 27.9 µM. With CCCC(CC)c1cc(O)c(O)cc1C(CC)CCC (stereo not drawn) the GI50 was inactive: > 10 µM. With CN(C)/C=N\c1c(Br)cc(Br)c2nonc12 the GI50 was inactive: > 100 µM. Cn1c2c(c3ccccc31)C1CCCCCCC1C1C(=O)OC(=O)C21 (stereo not drawn) was tested, and the GI50 was inactive: 65.6 µM. For N#Cc1ccc(C2Oc3ccc(Cl)cc3C=C2[N+](=O)[O-])cc1 (stereo not drawn), the GI50 was inactive: 1.82 µM. In the case of COC1C=COC2(C)Oc3c(C)c(O)c4c(c3C2=O)/C(=N/C2CCC(O)OC2C)C=C(NC(=O)/C(C)=C\C(=O)C2CC2C(O)C(C)C(O)C(C)C(OC(C)=O)C1C)C4=O (stereo not drawn), the GI50 is reported as inactive: 3.07 µM. CCOC(=O)C1C(=O)CC(O)(OCC)C(C(=O)OCC)C1c1ccc(OC)cc1 (stereo not drawn) was tested, and the GI50 was inactive: > 100 µM. Nc1nc[n+](Cc2ccccc2CCO)c2[nH]cnc12 was tested, and the GI50 was inactive: > 100 µM. For Cc1nc(-c2cccnc2)sc1C(=O)/C=C/c1ccc(Cl)cc1Cl, the GI50 was inactive: > 100 µM. With CC1=CC2(O)OC3(CC2=C(C)C)C(C)CCC13 (stereo not drawn) the GI50 was inactive: > 100 µM. C/C(=N\Nc1nc2ccccc2[nH]1)c1cnccn1 was tested, and the GI50 was active: 0.689 µM. CCOC(=O)CN1C(=O)c2c(c(C)n(-c3ccccc3)c2C)C1=O was tested, and the GI50 was inactive: > 100 µM. In the case of O=C(/C=C/C=C/c1ccccc1)c1ccccc1, the GI50 is reported as inactive: 17.6 µM. C=C1CC(OC)(C(O)C(=O)N[C@H]2OCO[C@H]3C2O[C@H](C[C@@H](CO)OC)C(C)(C)C3OC)O[C@H](C)[C@@H]1C (stereo partly drawn) was tested, and the GI50 was active: < 0.00931 µM. In the case of CC1C(=O)C23OC[C@@]1(C)C1(O)CC[C@@H](C)[C@]21CC3=O (stereo partly drawn), the GI50 is reported as inactive: > 100 µM. CCC1CN2CCc3c([nH]c4ccccc34)C2C[C@@H]1CC(=O)N(C)C (stereo partly drawn) was tested, and the GI50 was inactive: > 100 µM. In the case of OC1(c2ccc(Cl)cc2)c2ccccc2-c2nc3ccccc3n21 (stereo not drawn), the GI50 is reported as inactive: > 100 µM. In the case of CC(=O)O[C@H]1C(=O)[C@@]2(C)[C@H]([C@H](OC(=O)c3ccccc3)[C@]3(O)C[C@H](OC(=O)[C@H](O)[C@@H](NC(=O)c4ccccc4)c4ccccc4C)C(C)=C1C3(C)C)[C@]1(OC(C)=O)CO[C@@H]1C[C@@H]2O, the GI50 is reported as inactive: 1.32 µM. CCCCCCCCCCCCCCCC(=O)OCC1OC(n2ccc(N)nc2=O)C(O)C1O (stereo not drawn) was tested, and the GI50 was inactive: 7.66 µM. O=[N+]([O-])c1ccc(Oc2c(Cl)cc(S(=O)(=O)N/C(=N\O)Nc3ccc(Cl)cc3)cc2Cl)c(Cl)c1 was tested, and the GI50 was inactive: 14.9 µM.

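These data come from cells grown in 96-well plates and exposed to compound for 48 hours at five concentrations. Here, GI50 denotes the concentration required for 50% inhibition of growth.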 Activity calls are given as the source filed them. Rule as the data show it: active = GI50 up to about 1.1 µM and inactive = higher.
